Measured values published in the BET-seq Pho4 binding data (Le et al. 2018).
The list shows a part of the results. These are noisy estimates, calculated here from bound and input reads.

biological target: T1, Pho4 (S. cerevisiae) (UniProt P07270); assay: relative binding free energy (BET-seq); higher = weaker binding; conditions: reference: library average
T1 sequence: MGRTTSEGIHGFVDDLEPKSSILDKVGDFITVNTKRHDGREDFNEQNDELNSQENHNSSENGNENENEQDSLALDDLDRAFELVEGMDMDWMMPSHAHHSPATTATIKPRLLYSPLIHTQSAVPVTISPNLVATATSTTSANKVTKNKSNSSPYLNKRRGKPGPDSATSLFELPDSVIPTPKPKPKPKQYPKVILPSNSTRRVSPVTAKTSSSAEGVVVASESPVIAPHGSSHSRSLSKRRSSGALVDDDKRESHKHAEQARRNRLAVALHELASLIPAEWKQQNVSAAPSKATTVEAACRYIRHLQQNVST

Relative binding free energy, -0.25 kcal/mol:
ATGGGCACGTGCACGG

Relative binding free energy, -0.2 kcal/mol:
TAGTGCACGTGGTTCT, TTAGGCACGTGCGGCG

Relative binding free energy, -0.18 kcal/mol:
ATTGGCACGTGGATTG, CCTGGCACGTGGAGGG

Relative binding free energy, 0.07 kcal/mol:
GCGGTCACGTGCTGTT, GAGGTCACGTGCTAGG

Relative binding free energy, 0.08 kcal/mol:
GGGATCACGTGGGTGG, TTATACACGTGTGGAA, TTAGTCACGTGGTTCA

Relative binding free energy, 0.04 kcal/mol:
TGTGCCACGTGTTTTC, TTTAACACGTGTATGG, GTTGTCACGTGCAGTG, AAATGCACGTGTTGTT, TGATACACGTGGATTG

Relative binding free energy, 0.38 kcal/mol:
TTTTTCACGTGATGCC, TATATCACGTGAGTTT, GGGTACACGTGATCAG

Relative binding free energy, -0.19 kcal/mol:
AGTGGCACGTGGGCAG

Relative binding free energy, 0.03 kcal/mol:
TAGAGCACGTGGAGAG, TGAAACACGTGTCGGG, GCGTGCACGTGGCTTG, GCGGACACGTGGTGTT

Relative binding free energy, -0.15 kcal/mol:
GGCTGCACGTGGGGGA

Relative binding free energy, 0.3 kcal/mol:
GATTTCACGTGGGAGT

Relative binding free energy, 0.22 kcal/mol:
ATATTCACGTGCGTAA, GGATACACGTGAGTGA, GAGGACACGTGTGATT, TGTGACACGTGAGGAC

Relative binding free energy, 0.35 kcal/mol:
GGTTACACGTGAGTTT, GTGGTCACGTGAGAGG

Relative binding free energy, 0.19 kcal/mol:
AGTGTCACGTGAGGTT, ATGATCACGTGGAGTC, TCTTTCACGTGATAGT, CTGAGCACGTGAGGCG, TTAACCACGTGAAGGG

Relative binding free energy, 0.1 kcal/mol:
AATACCACGTGTTAGG, GGGTCCACGTGACGTG, CTGGTCACGTGGATAG, TCATTCACGTGTGGGC, GGTCTCACGTGTCGGG

Relative binding free energy, 0.28 kcal/mol:
GTACTCACGTGGATGT, CTCGGCACGTGTCGGA

Relative binding free energy, 0.32 kcal/mol:
GTATTCACGTGTAATT

Relative binding free energy, -0.04 kcal/mol:
ACCGGCACGTGTTGGG, GGATACACGTGCGGGG, TTAAGCACGTGGATAT, TTGGACACGTGCCGGG

Relative binding free energy, 0.37 kcal/mol:
GGGCTCACGTGGGACT, GCGTTCACGTGAAGGG

Relative binding free energy, 0.12 kcal/mol:
AGGGTCACGTGGCTTC, GGCCTCACGTGGGGGG, TAAGTCACGTGTCTGG, TTGATCACGTGTTTAT, CGGGTCACGTGTGTGA, TGCATCACGTGGTAGA, GGGTGCACGTGTGGGG

Relative binding free energy, 0 kcal/mol:
TTACACACGTGGTTTG, GGTGACACGTGGTGGC, AGTCGCACGTGTGTTT, TTCTGCACGTGTTTTA, TGTATCACGTGGCTAT, GTCACCACGTGGTGGG, ATTGACACGTGGATGA

Relative binding free energy, 0.31 kcal/mol:
GGGTTCACGTGTTCAA, GAGCTCACGTGTTAGG

Relative binding free energy, 0.29 kcal/mol:
TCGTTCACGTGAGTAG, TGAAGCACGTGAGGTA

Relative binding free energy, -0.06 kcal/mol:
TTGTACACGTGTAGGC, GTGTACACGTGATATG, GGACGCACGTGTGTTT, TCTAGCACGTGTGGGA

Relative binding free energy, -0.03 kcal/mol:
GGGTCCACGTGCTGGT, TTGGACACGTGGGGTA, CTATACACGTGGTGGG

Relative binding free energy, 0.2 kcal/mol:
GATTACACGTGTGAGT, GAGTACACGTGTCTTT, AACTTCACGTGGATGT, AGATTCACGTGCGTTG, TCTGACACGTGTGGAT

Relative binding free energy, -0.23 kcal/mol:
ATAGGCACGTGGGTGT

Relative binding free energy, 0.39 kcal/mol:
GGTTGCACGTGAAAAG, AAGTTCACGTGACTGG

Relative binding free energy, 0.26 kcal/mol:
GGTATCACGTGGGATG, AGTATCACGTGTGTAT, GTTATCACGTGTATAC, ATTTTCACGTGAGTTA

Relative binding free energy, 0.15 kcal/mol:
ACTGTCACGTGTAAGG

Relative binding free energy, 0.01 kcal/mol:
AGGGCCACGTGTGCGA, AGGTACACGTGTTTTG, AGTGACACGTGGTAGA, GCGCACACGTGGGGTT, CTGGTCACGTGCTTGT, TGTTGCACGTGTTAAA, AGGTACACGTGCGTAT

Relative binding free energy, -0.08 kcal/mol:
TTAAGCACGTGCGGAG, TCGTCCACGTGGGTGT, TGACGCACGTGTGGTG, GGACGCACGTGGGGCG

Relative binding free energy, -0.01 kcal/mol:
GAAAGCACGTGGTGCG, TGGGACACGTGTCGAG

Relative binding free energy, 0.6 kcal/mol:
GTATTCACGTGAATGA

Relative binding free energy, -0.28 kcal/mol:
TCTGGCACGTGCGTGT

Relative binding free energy, 0.11 kcal/mol:
GGGGTCACGTGTTCGT, GGAATCACGTGGTGTC, TGATGCACGTGATTGC, AGTTACACGTGTGATA, AGGTACACGTGTGGAC, GAGTGCACGTGGAATA, GGTGGCACGTGGAAGT

Relative binding free energy, 0.33 kcal/mol:
GTAATCACGTGCAGGG, GATTTCACGTGTCGTG, ATTAACACGTGAGAGG, GCATTCACGTGTTTGT

Relative binding free energy, 0.25 kcal/mol:
GTTGTCACGTGTGGTA, ATGTTCACGTGGCAAA, GTGATCACGTGATGCT, AGTGACACGTGAGATG

Relative binding free energy, 0.23 kcal/mol:
ATGTTCACGTGTCAAG, GGGGTCACGTGATTAA, AAGGACACGTGTGATA

Relative binding free energy, -0.17 kcal/mol:
TATGGCACGTGGACTT, AGAGGCACGTGGTAGC, GGGGGCACGTGTTCGT, ATAAGCACGTGGAGGG

Relative binding free energy, -0.09 kcal/mol:
AATGTCACGTGGGGTG, CCGGGCACGTGTATGG, GGAAGCACGTGGGACG, AAGGGCACGTGTGATA, ACGGGCACGTGGTAAG

Relative binding free energy, 0.45 kcal/mol:
TATTTCACGTGTAGAT

Relative binding free energy, -0.11 kcal/mol:
TTGGGCACGTGTCTAT, TTTGACACGTGGTACG, AGCGGCACGTGGCGTG, CTAGGCACGTGGTTTG

Relative binding free energy, 0.4 kcal/mol:
TTGGTCACGTGAGTGG, TTCATCACGTGAGCGT, CGGGTCACGTGAACGT

Relative binding free energy, 0.09 kcal/mol:
GGTGTCACGTGTCCTG, AGTATCACGTGGGTCA, GACATCACGTGGGGGA, TCTGTCACGTGATTAT, TCAGTCACGTGCATGT, GGGGCCACGTGGAGAC

Relative binding free energy, -0.05 kcal/mol:
TGGAGCACGTGTGGAT, ATAAACACGTGTTTGG, TGAAGCACGTGTAATG, AAGAGCACGTGGTAAT, TAGTACACGTGGGAAT, TGAGGCACGTGACATG, TGTGTCACGTGCGCAA, ACGTACACGTGGGTGG

Relative binding free energy, 0.34 kcal/mol:
GGATACACGTGAGTAT

Relative binding free energy, 0.18 kcal/mol:
TTCGTCACGTGTGATG, AATTTCACGTGGGGTA

Relative binding free energy, 0.13 kcal/mol:
TCTATCACGTGTTGAT, GGGGTCACGTGTGCAA, GCAGTCACGTGTGTGT, TCTTTCACGTGGTGCG, GTGTACACGTGCGGGG

Relative binding free energy, 0.02 kcal/mol:
TGTTGCACGTGTCAAG, GCAGTCACGTGGGGCT, GGTAACACGTGGACTG, TTGCGCACGTGTGGCT, GTTCACACGTGTTGTG, TGCCTCACGTGGGTTA

Relative binding free energy, -0.1 kcal/mol:
TGGTGCACGTGGCCTT, GATAGCACGTGTGGTG

Relative binding free energy, 0.16 kcal/mol:
GACGTCACGTGTGTTA, TTCGTCACGTGAGGAG, GTTTGCACGTGCAAGA, GTTTACACGTGTTACT, AGGTTCACGTGGACAT, AACATCACGTGGTGTG, GATGGCACGTGAGAGA, GGGTGCACGTGGAAAA

Relative binding free energy, -0.21 kcal/mol:
TACGGCACGTGGGAGG, ACGGGCACGTGGCGGA, TCGCGCACGTGGGTGT

Relative binding free energy, 0.06 kcal/mol:
GGGAACACGTGTGTTT, TGAGGCACGTGTGACT, AGGACCACGTGGATGT, TTAGGCACGTGTTAGA

Relative binding free energy, -0.02 kcal/mol:
TTTGTCACGTGCGCTG, GTGAGCACGTGGATAT

Relative binding free energy, -0.27 kcal/mol:
TTGGGCACGTGCTGCG

Relative binding free energy, 0.14 kcal/mol:
TTGTACACGTGAGCTT, ATCGTCACGTGATAGT, GTTAACACGTGATCGT

Relative binding free energy, -0.12 kcal/mol:
ACTGGCACGTGATAGG, CAAGACACGTGGGTTG, GCGGGCACGTGGCGAG

Relative binding free energy, -0.07 kcal/mol:
CAAGGCACGTGTAGTG, AGAGACACGTGGAGTG, TATGCCACGTGTGTAA, CTGTGCACGTGTGGTA, TAATGCACGTGTTCGG, TGGACCACGTGGAGTG, GGATCCACGTGGGGGG, GCCGGCACGTGGTGAG

Relative binding free energy, -0.14 kcal/mol:
GAGAACACGTGGGTGG, CTGGGCACGTGTTTAT, GATGGCACGTGGGAAG

Relative binding free energy, 0.27 kcal/mol:
GGTTTCACGTGTATGA

Relative binding free energy, -0.13 kcal/mol:
CATTGCACGTGGGGCT, TTTGGCACGTGCTGCA, TAACGCACGTGGTCGG

Relative binding free energy, 0.05 kcal/mol:
GACTACACGTGGGGGG, GTTAGCACGTGTAGCG, GCATACACGTGGTGGA, CGGGCCACGTGAGAGG, GGATGCACGTGGAGCT, CATGACACGTGTTGGG, GCTTACACGTGGTGGT

Relative binding free energy, 0.17 kcal/mol:
AGTTTCACGTGGCTGG, ACATTCACGTGGGGGG, TGGCACACGTGTGGTA, GGTTGCACGTGACTTG, TGTATCACGTGTCATA

Relative binding free energy, 0.21 kcal/mol:
TATGTCACGTGTTTAC, CTGTTCACGTGGGGAG, TTTTTCACGTGGGCCG, AGGTCCACGTGTTGGA, ATTTACACGTGAGGGG, GTATGCACGTGAGGAT, CTTAGCACGTGAGTGT, GCGGTCACGTGGTGAA

Relative binding free energy, 0.24 kcal/mol:
AAGGACACGTGATGGC, ATCATCACGTGTCGTG, TTTAACACGTGAGATT
